In PMC9911399, “Two distinct binding modes provide the RNA-binding protein RbFox with extraordinary sequence specificity”:
Substitutions are numbered along the chain they refer to; changes in the protein carry UniProt numbers. The list shows a part of the results.

B1: UCGUAGU (DNA:RNA)
RNA: GGGAGACCGGAAUUCAGAUUGUCCUCGUAGUUUAAAUCCCGUCGUAGCCACCA
DNA 1: CAATCTGAATTCCGGTCTCCC
DNA 2: TGGTGGCTACGACGGGATT
B2: GUCACAA (DNA:RNA)
RNA: GGGAGACCGGAAUUCAGAUUGUCCGUCACAAUUAAAUCCCGUCGUAGCCACCA
DNA 1: CAATCTGAATTCCGGTCTCCC
DNA 2: TGGTGGCTACGACGGGATT
B3: AGAGCUA (DNA:RNA)
RNA: B2 RNA with G25A, U26G, C27A, A28G, A30U
DNA 1: CAATCTGAATTCCGGTCTCCC
DNA 2: TGGTGGCTACGACGGGATT
B4: AGAAGCC (DNA:RNA)
RNA: B2 RNA with G25A, U26G, C27A, C29G, A30C, A31C
DNA 1: CAATCTGAATTCCGGTCTCCC
DNA 2: TGGTGGCTACGACGGGATT
B5: GUGCGAG (DNA:RNA)
RNA: B2 RNA with C27G, A28C, C29G, A31G
DNA 1: CAATCTGAATTCCGGTCTCCC
DNA 2: TGGTGGCTACGACGGGATT
B6: CCAGUAC (DNA:RNA)
RNA: B2 RNA with G25C, U26C, C27A, A28G, C29U, A31C
DNA 1: CAATCTGAATTCCGGTCTCCC
DNA 2: TGGTGGCTACGACGGGATT
B7: CUGAAAC (DNA:RNA)
RNA: B2 RNA with G25C, C27G, C29A, A31C
DNA 1: CAATCTGAATTCCGGTCTCCC
DNA 2: TGGTGGCTACGACGGGATT
B8: ACAUCAA (DNA:RNA)
RNA: B2 RNA with G25A, U26C, C27A, A28U
DNA 1: CAATCTGAATTCCGGTCTCCC
DNA 2: TGGTGGCTACGACGGGATT
B9: CCCGUUA (DNA:RNA)
RNA: B2 RNA with G25C, U26C, A28G, C29U, A30U
DNA 1: CAATCTGAATTCCGGTCTCCC
DNA 2: TGGTGGCTACGACGGGATT

Target: T1, RBFOX1 RRM RbFoxmut (Fox-RRM*) (Homo sapiens, UniProt Q9NWB1 109-208, R118D;E147R;N151S;E152T)
T1 sequence: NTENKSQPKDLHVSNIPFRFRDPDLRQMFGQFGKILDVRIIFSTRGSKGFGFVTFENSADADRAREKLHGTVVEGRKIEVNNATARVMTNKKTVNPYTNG
Assay: EMSA; HiTS-Eq, 1 nM pool, 10 min; buffer printed only for the single-RNA assays: 10 mM Tris pH 7.5, 150 mM NaCl, 3.4 mM EDTA, 0.001% NP-40, 30 C
Details: tags: His6 N-terminal (pET28a); label: 5' 32P
In short: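 Purified wild-type or mutant RbFox RRM at increasing concentrations was equilibrated with 1 nM of 5′-radiolabelled RNA carrying 7 randomized nucleotides for 10 min in 50 µL. Unbound RNA was separated by 8% native PAGE and sequenced. Relative association constants came from read-count changes of each RNA species compared with the control reaction, normalised to the cognate motif.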

Binder	binding signal
B1	0.152 KA relative to UGCAUGU
B2	0.0827 KA relative to UGCAUGU
B3	0.132 KA relative to UGCAUGU
B4	0.066 KA relative to UGCAUGU
B5	0.154 KA relative to UGCAUGU
B6	0.117 KA relative to UGCAUGU
B7	0.0747 KA relative to UGCAUGU
B8	0.0935 KA relative to UGCAUGU
B9	0.0711 KA relative to UGCAUGU
